According to the supplement of paper PMC9151546:
Structures can show the parent of a compound that is named as a salt. Most values come without repeats; read them as rough.

Assays:
CHO-K1 [1] = experiment: micronucleus frequency (% of nucleated events); higher = more micronuclei (genotoxic)
CHO-K1 [2] = experiment: hypodiploid nuclei frequency (% of nucleated events); higher = more hypodiploid events (aneugenic)
CHO-K1 [3] = experiment: relative survival (nuclei to bead ratio vs DMSO control) (% of vehicle control); higher = more surviving cells
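Throughout, for hypodiploid nuclei frequency (% of nucleated events): hypodiploid nuclei gated on a flow cytometer with 488 nm excitation after SYTOX Green staining, cultures at 37 °C, positive controls vinblastine without S9 and cyclophosphamide with S9.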
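Throughout, for micronucleus frequency (% of nucleated events): cells lysed with nuclei stained by SYTOX Green, then micronucleus-gated events counted against nucleated events by flow cytometry with 488 nm excitation.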
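Throughout, for relative survival (nuclei to bead ratio vs DMSO control): Lysed-cell nuclei stained with SYTOX Green and counted against counting beads by flow cytometry at 488 nm excitation, with vinblastine (no S9) and cyclophosphamide (plus S9) as positive controls.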

COc1cc(-c2ccc(N)c(OC)c2)ccc1N [3,3'-Dimethoxybenzidine dihydrochloride]
Conditions	hypodiploid nuclei frequency, CHO-K1 [2] [%]	micronucleus frequency, CHO-K1 [1] [%]	relative survival, CHO-K1 [3]
concentration: 4.5 (µM), S9 metabolic activation: with S9, exposure time: 3-4 hours	0.2	1.22	58.1
concentration: 4.5 (µM), S9 metabolic activation: without S9, exposure time: 24 hours	0.86	1.38	106
concentration: 5.63 (µM), S9 metabolic activation: with S9, exposure time: 3-4 hours	0.32	0.96	52.1
concentration: 5.63 (µM), S9 metabolic activation: without S9, exposure time: 24 hours	1.22	1.42	124
concentration: 7.04 (µM), S9 metabolic activation: with S9, exposure time: 3-4 hours	0.16	0.9	54.1
concentration: 7.04 (µM), S9 metabolic activation: without S9, exposure time: 24 hours	1.06	1.58	121
concentration: 8.8 (µM), S9 metabolic activation: with S9, exposure time: 3-4 hours	0.28	1.22	55
concentration: 8.8 (µM), S9 metabolic activation: without S9, exposure time: 24 hours	1.32	1.84	140
concentration: 11 (µM), S9 metabolic activation: with S9, exposure time: 3-4 hours	0.22	0.98	52
concentration: 11 (µM), S9 metabolic activation: without S9, exposure time: 24 hours	2.42	1.8	102
concentration: 13.7 (µM), S9 metabolic activation: with S9, exposure time: 3-4 hours	0.18	1.44	49.1
concentration: 13.7 (µM), S9 metabolic activation: without S9, exposure time: 24 hours	2.22	1.58	96
concentration: 17.2 (µM), S9 metabolic activation: with S9, exposure time: 3-4 hours	0.12	1.2	64.5
concentration: 17.2 (µM), S9 metabolic activation: without S9, exposure time: 24 hours	22.8	2.08	62.9
concentration: 21.5 (µM), S9 metabolic activation: with S9, exposure time: 3-4 hours	0.2	1.06	60.5
concentration: 21.5 (µM), S9 metabolic activation: without S9, exposure time: 24 hours	8.14	2.12	62.7
concentration: 26.8 (µM), S9 metabolic activation: with S9, exposure time: 3-4 hours	0.24	1.24	75.4
concentration: 26.8 (µM), S9 metabolic activation: without S9, exposure time: 24 hours	3.84	1.46	70.2
concentration: 33.6 (µM), S9 metabolic activation: with S9, exposure time: 3-4 hours	0.1	1.24	86.5
concentration: 33.6 (µM), S9 metabolic activation: without S9, exposure time: 24 hours	7.54	2.04	50.8
concentration: 41.9 (µM), S9 metabolic activation: with S9, exposure time: 3-4 hours	0.28	1.42	86.5
concentration: 41.9 (µM), S9 metabolic activation: without S9, exposure time: 24 hours	23.5	2.64	41.1
concentration: 52.4 (µM), S9 metabolic activation: with S9, exposure time: 3-4 hours	0.12	1.3	69.1
concentration: 52.4 (µM), S9 metabolic activation: without S9, exposure time: 24 hours	–	–	16.9
concentration: 65.5 (µM), S9 metabolic activation: with S9, exposure time: 3-4 hours	0.1	1.36	56.5
concentration: 65.5 (µM), S9 metabolic activation: without S9, exposure time: 24 hours	–	–	10.1
concentration: 81.9 (µM), S9 metabolic activation: with S9, exposure time: 3-4 hours	0.4	1	76.3
concentration: 81.9 (µM), S9 metabolic activation: without S9, exposure time: 24 hours	–	–	12.4
concentration: 102 (µM), S9 metabolic activation: with S9, exposure time: 3-4 hours	0.32	1.38	57.3
concentration: 102 (µM), S9 metabolic activation: without S9, exposure time: 24 hours	–	–	9.83
concentration: 128 (µM), S9 metabolic activation: with S9, exposure time: 3-4 hours	0.44	1.32	66.3
concentration: 128 (µM), S9 metabolic activation: without S9, exposure time: 24 hours	–	–	6.16
concentration: 160 (µM), S9 metabolic activation: with S9, exposure time: 3-4 hours	0.22	1.18	60.7
concentration: 160 (µM), S9 metabolic activation: without S9, exposure time: 24 hours	–	–	4.99
concentration: 200 (µM), S9 metabolic activation: with S9, exposure time: 3-4 hours	0.34	1.02	58.1
concentration: 200 (µM), S9 metabolic activation: without S9, exposure time: 24 hours	–	–	2.2

Nc1nc(=O)c2nc(CNc3ccc(C(=O)N[C@@H](CCC(=O)O)C(=O)O)cc3)cnc2[nH]1 [Folic acid]
Conditions	hypodiploid nuclei frequency, CHO-K1 [2] [%]	micronucleus frequency, CHO-K1 [1] [%]	relative survival, CHO-K1 [3]
concentration: 4.5 (µM), S9 metabolic activation: with S9, exposure time: 3-4 hours	0.2	1.36	124
concentration: 4.5 (µM), S9 metabolic activation: without S9, exposure time: 24 hours	0.82	3.1	107
concentration: 5.63 (µM), S9 metabolic activation: with S9, exposure time: 3-4 hours	0.02	1.12	98.8
concentration: 5.63 (µM), S9 metabolic activation: without S9, exposure time: 24 hours	0.44	1.86	107
concentration: 7.04 (µM), S9 metabolic activation: with S9, exposure time: 3-4 hours	0.2	0.96	102
concentration: 7.04 (µM), S9 metabolic activation: without S9, exposure time: 24 hours	0.44	2.28	90.8
concentration: 8.8 (µM), S9 metabolic activation: with S9, exposure time: 3-4 hours	0.14	1.24	88.9
concentration: 8.8 (µM), S9 metabolic activation: without S9, exposure time: 24 hours	0.74	2.82	110
concentration: 11 (µM), S9 metabolic activation: with S9, exposure time: 3-4 hours	0.14	1.12	101
concentration: 11 (µM), S9 metabolic activation: without S9, exposure time: 24 hours	0.6	1.76	127
concentration: 13.7 (µM), S9 metabolic activation: with S9, exposure time: 3-4 hours	0.26	1.12	120
concentration: 13.7 (µM), S9 metabolic activation: without S9, exposure time: 24 hours	0.64	3.02	104
concentration: 17.2 (µM), S9 metabolic activation: with S9, exposure time: 3-4 hours	0.14	0.72	113
concentration: 17.2 (µM), S9 metabolic activation: without S9, exposure time: 24 hours	0.6	2.44	147
concentration: 21.5 (µM), S9 metabolic activation: with S9, exposure time: 3-4 hours	0.24	1.04	115
concentration: 21.5 (µM), S9 metabolic activation: without S9, exposure time: 24 hours	0.64	1.62	93
concentration: 26.8 (µM), S9 metabolic activation: with S9, exposure time: 3-4 hours	0.2	1.12	131
concentration: 26.8 (µM), S9 metabolic activation: without S9, exposure time: 24 hours	0.68	2.48	104
concentration: 33.6 (µM), S9 metabolic activation: with S9, exposure time: 3-4 hours	0.16	1.46	109
concentration: 33.6 (µM), S9 metabolic activation: without S9, exposure time: 24 hours	0.6	2.24	104
concentration: 41.9 (µM), S9 metabolic activation: with S9, exposure time: 3-4 hours	0.12	1.58	114
concentration: 41.9 (µM), S9 metabolic activation: without S9, exposure time: 24 hours	0.8	2.04	105
concentration: 52.4 (µM), S9 metabolic activation: with S9, exposure time: 3-4 hours	0.1	1.14	118
concentration: 52.4 (µM), S9 metabolic activation: without S9, exposure time: 24 hours	0.78	1.94	152
concentration: 65.5 (µM), S9 metabolic activation: with S9, exposure time: 3-4 hours	0.12	1.6	91.8
concentration: 65.5 (µM), S9 metabolic activation: without S9, exposure time: 24 hours	0.76	2.06	113
concentration: 81.9 (µM), S9 metabolic activation: with S9, exposure time: 3-4 hours	0.1	1.26	94.6
concentration: 81.9 (µM), S9 metabolic activation: without S9, exposure time: 24 hours	0.84	2.2	98.6
concentration: 102 (µM), S9 metabolic activation: with S9, exposure time: 3-4 hours	0.28	1.58	94.9
concentration: 102 (µM), S9 metabolic activation: without S9, exposure time: 24 hours	0.88	1.5	115
concentration: 128 (µM), S9 metabolic activation: with S9, exposure time: 3-4 hours	0.48	2.98	136
concentration: 128 (µM), S9 metabolic activation: without S9, exposure time: 24 hours	1.08	1.78	108
concentration: 160 (µM), S9 metabolic activation: with S9, exposure time: 3-4 hours	0.34	1.76	102
concentration: 160 (µM), S9 metabolic activation: without S9, exposure time: 24 hours	1.16	1.84	122
concentration: 200 (µM), S9 metabolic activation: with S9, exposure time: 3-4 hours	0.1	1.76	97.4
concentration: 200 (µM), S9 metabolic activation: without S9, exposure time: 24 hours	1.46	2.4	81.5
